Measurements: publication PMC4336329 (PLoS ONE, 2015)
The whole screen tested about 310,000 compounds, of which about 14,000 (4.5%) showed an effect of 50% or more. Effects have a minus sign here. The list shows a part of the results.

molecular target: human ether-à-go-go-related gene (hERG) potassium channel (human, UniProt Q12809); experiment: primary screen, population patch clamp on CHO cells stably expressing hERG
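Note: peak tail current of the secondary pulse compared with the same well before compound.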

Chain of human ether-à-go-go-related gene (hERG) potassium channel (Q12809 whole entry, looked up): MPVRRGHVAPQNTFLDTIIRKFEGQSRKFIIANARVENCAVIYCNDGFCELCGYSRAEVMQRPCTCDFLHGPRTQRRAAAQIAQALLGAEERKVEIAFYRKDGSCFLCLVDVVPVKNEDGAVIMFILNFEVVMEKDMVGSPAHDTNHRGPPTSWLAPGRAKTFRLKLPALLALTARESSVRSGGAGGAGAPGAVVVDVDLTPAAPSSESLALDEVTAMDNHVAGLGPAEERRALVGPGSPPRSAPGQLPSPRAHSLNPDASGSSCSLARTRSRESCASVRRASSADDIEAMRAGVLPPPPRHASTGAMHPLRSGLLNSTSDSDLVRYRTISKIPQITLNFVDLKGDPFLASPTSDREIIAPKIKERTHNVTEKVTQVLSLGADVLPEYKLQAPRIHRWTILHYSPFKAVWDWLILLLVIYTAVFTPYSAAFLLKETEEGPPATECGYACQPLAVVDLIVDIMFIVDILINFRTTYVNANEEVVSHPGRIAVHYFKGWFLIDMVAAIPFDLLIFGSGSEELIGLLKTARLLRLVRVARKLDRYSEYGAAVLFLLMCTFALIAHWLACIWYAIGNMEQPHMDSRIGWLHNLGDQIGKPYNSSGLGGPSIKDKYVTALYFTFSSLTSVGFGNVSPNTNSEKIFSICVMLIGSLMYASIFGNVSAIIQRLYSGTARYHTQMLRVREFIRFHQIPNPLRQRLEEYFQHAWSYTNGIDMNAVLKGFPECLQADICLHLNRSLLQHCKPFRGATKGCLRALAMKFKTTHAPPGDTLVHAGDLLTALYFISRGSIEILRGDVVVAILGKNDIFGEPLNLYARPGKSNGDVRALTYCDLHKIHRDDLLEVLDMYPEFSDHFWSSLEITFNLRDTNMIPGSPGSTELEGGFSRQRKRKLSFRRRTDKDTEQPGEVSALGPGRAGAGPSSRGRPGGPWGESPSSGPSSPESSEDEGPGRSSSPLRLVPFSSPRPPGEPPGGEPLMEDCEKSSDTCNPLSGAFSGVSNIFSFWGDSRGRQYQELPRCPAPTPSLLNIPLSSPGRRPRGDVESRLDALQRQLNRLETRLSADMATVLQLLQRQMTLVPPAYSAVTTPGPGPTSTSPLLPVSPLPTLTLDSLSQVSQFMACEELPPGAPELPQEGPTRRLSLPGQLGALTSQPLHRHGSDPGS

| SMILES | hERG current change (%, negative = inhibition) at 10uM [%] |
| --- | --- |
| COc1ccccc1CC(=O)NCc1ccc2c(c1)OCO2 | 24.2 |
| O=C(c1cc(-c2ccccc2)nn1-c1ccccc1)N1CCN(S(=O)(=O)c2ccc(F)cc2)CC1 | -7.73 |
| CC(=O)N(CCC1(C(C)C)CCOC(C)(C)C1)Cc1ccco1 (centres unmarked) | -4.98 |
| COc1ccc(C(=O)N/C(=C\c2ccccc2)C(=O)NC(CC(C)C)C(=O)O)cc1 (centres unmarked) | 30.7 |
| COc1ccc(-c2nc(C#N)c(N3CCOCC3)o2)cc1OC | -7.47 |
| O=C(CSc1ccc2nnc(CCNC(=O)c3ccccc3)n2n1)Nc1ccccc1 | -10.9 |
| COc1ccc(-c2ncnc(C(F)(F)F)c2-c2csc(C)n2)c(O)c1 | -2.45 |
| C[C@H]1CN=C(Nc2ccccc2)N1CCCC1CCCC1 | -58.7 |
| CCOc1cc(C(=O)OCC(=O)NC(C)c2ccccc2)ccc1OCC(=O)N1CCOCC1 (centres unmarked) | 2.42 |
| COc1ccc(C2=Nc3cccc4cccc(c34)N2)cc1 | 9.66 |
| O=C(Nc1ccnn1C1CCN(Cc2ccc3nonc3c2)CC1)c1cccc(F)c1 | -37.4 |
| CN(C(=O)c1ccc(NC(=O)Cc2ccc(NC(=O)C3CCCN(C(=O)CCc4ccccc4)C3)cc2)cc1)C1CC1 (centres unmarked) | 2.3 |
| Cc1n[nH]c(=O)c2c(NC(=O)CSc3nnc(C4CC4)n3C)oc(C)c12 | 3.25 |
| Cc1ccc(-c2nsc(SCC(=O)NCC3CCCO3)n2)cc1 (centres unmarked) | -6.67 |
| COC(=O)C(Cc1cccc(C)n1)(c1ccccc1)c1ccccc1 | 3.7 |
| CCOC(=O)c1[nH]c2ccccc2c1NC(=O)c1ccc2c(c1)OCO2 | -9.76 |
| CN(C(=O)CSc1ncccc1C(=O)O)c1ccccc1 | -3.26 |
| COc1ccccc1NS(=O)(=O)c1cccc(C(=O)N/N=C/c2ccc3c(c2)OCCO3)c1 | -16.3 |
| CCc1nc2ccccc2n1CCc1ccccc1.Cl | -16.6 |

| SMILES | hERG current change (%, negative = inhibition) at 10uM [%] |
| --- | --- |
| Cc1cccc(N2CCN(S(=O)(=O)c3cccc4nonc34)CC2)c1C | 14.7 |
| Cc1ccccc1NC(=O)OCc1cn(-c2ccc(Cl)cc2)nn1 | -7.61 |
| CCOC(=O)c1snc2c(=O)[nH]cnc12 | 6.6 |
| COc1ccc(C2CC(c3ccc(Br)cc3)=NN2C(=O)CSC2=NN3CCCC(=O)N=C3S2)cc1 (centres unmarked) | 21.3 |
| CCC(Cc1ccccc1)NC(=O)CN1C(=O)CSc2ncccc21 (centres unmarked) | 0.337 |
| CC(=O)Nc1ccc(NC(=O)Cc2ccc(S(=O)(=O)N3CCCCC3)s2)cc1 | -2.44 |
| Cc1nnc(SCc2ccccc2Cl)n(N)c1=O | -9.65 |
| COc1cccc2c1O/C(=N\O)C(C(=O)Nc1ccc(C)cc1)C2 (centres unmarked) | 1.46 |
| Cc1ccc(C(=O)Nc2ccccc2C(=O)O)cc1S(=O)(=O)Nc1ccccc1 | 12.5 |
| CCOc1ncccc1C(=O)Nc1nnc(C(CC)CC)s1 | -29.8 |
| CCOP(=O)(OCC)C(NC(=O)c1cccs1)c1ccccc1 (centres unmarked) | 23.5 |
| Cc1nn(C)cc1NC(=O)Cn1nc(C(F)(F)F)cc1C1CC1 | 26.2 |
| CC1CCC2C(C1)Nc1c(C(=O)O)cccc1C2(C)C (centres unmarked) | 49.3 |
| Cc1nc2ccc(Br)cc2c2c1CC(CBr)O2 (centres unmarked) | -26.8 |
| COc1ccc(C(=O)c2c3ccc(C(F)(F)F)cc3[n+]([O-])n2CCCC(N)=O)cc1 | -51.6 |
| CCOc1ccccc1N1CCN(C(=O)c2cc(C)oc2C)CC1 | 5.3 |
| COc1ccccc1CCC(=O)OCC(=O)NC1CCCCC1 | 14.9 |
| Cc1cccc(NS(=O)(=O)c2cccc(C(=O)N3CC(C)OC(C)C3)c2)c1 (centres unmarked) | 3.98 |
| Cc1ccc(NC(=O)c2cc(-c3ccc(C)o3)nc3ccccc23)cc1 | 4.86 |

| SMILES | hERG current change (%, negative = inhibition) at 10uM [%] |
| --- | --- |
| CCOC(=O)c1ccc(NC(=O)CC2C(=O)N(c3cccc(OC)c3)C(=O)N2CCOC)cc1 (centres unmarked) | -21.2 |
| CC1CCN(C(=O)COC(=O)c2ccc(N3CCCC3=O)cc2)CC1 | 0.0308 |
| O=C(/C=C/c1cccs1)NC1CCS(=O)(=O)C1 (centres unmarked) | 25.6 |
| CCOc1ccc(-n2c(N)c(C(=O)NCc3ccco3)c3nc4ccccc4nc32)cc1 | -4.43 |
| COc1ccc(S(=O)(=O)N(CC(=O)N2CCN(C)CC2)c2ccc(C)cc2)cc1OC | -11 |
| FC(F)(F)c1cccc(Nc2cc(-c3ccccc3)nc3ncnn23)c1 | 13.5 |
| CCN1CCN(C(=O)c2nn(-c3ccc(C)cc3)c(=O)c3c2c2ccccc2n3C)CC1 | 7.15 |
| Cc1ccsc1C(=O)OCC(=O)NCCCc1ccccc1 | -20.8 |
| NC1=NC(=Nc2ccc(Br)cc2)c2ccccc21 | -6.61 |
| N#CCCN(C(=O)c1ccco1)c1ccccc1 | 2.09 |
| CC(=O)Nc1ccc(NC(=O)C2CCN(C(=O)c3ccc([N+](=O)[O-])cc3)CC2)cc1 | -0.926 |
| Cc1cccc(C)c1NC(=O)CN1CCN(CC(=O)c2cc(C)n(C3CC3)c2C)CC1 | -12.4 |
| Cc1c(N=NC2=C(O)CC(C)(C)CC2=O)cc2c(c1[N+](=O)[O-])C(C)(C)CC2(C)C | 17 |
| O=C1c2ccccc2S(=O)(=O)c2cc(C(=O)N3CCCC3)ccc21 | -1.93 |
| CCCCNc1nc2c(S(=O)(=O)c3ccccc3)nnn2c2ccccc12 | 14.3 |
| Cl.Fc1ccc(CCNCc2ccccc2Cl)cc1 | 1.24 |
| COc1cccc(CN(C)C(=O)C2CSC3(C)CCC(=O)N23)c1OC (centres unmarked) | 12.5 |
| Oc1ccc(-[n+]2c(-c3ccccc3)cc(-c3ccccc3)cc2-c2ccccc2)cc1.[O-][Cl+3]([O-])([O-])[O-] | -71.3 |
